Experimental data as given in PubChem BioAssay AID1508623 (National Center for Advancing Translational Sciences (NCATS), 2021).
Hit rate of the full screen: of about 48,000 compounds, about 450 (0.94%) were called active. Another 19% or so got no clear call; they are omitted. Calls follow the shape of the dose curve; as a rule, active = well fitted inhibition curve with a large enough effect; inconclusive = small, poorly fitted or top-dose-only effect; inactive = no such curve, though single readings can be large or run the other way. This is one part of the list.

Assay: Primary qHTS for Identification of Small Molecule Inhibitors of Huntingtin Promoter Activity; also: nearly all actives have a fitted effect of over 50% in size
Details: HEK293 HTT promoter firefly luciferase reporter (activity 0% = vehicle and -100% = no light), 24 h; series mostly up to 57.5 µM; activity change, negative = inhibition: at the top concentration
In short: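 Firefly luciferase readout (Dual-Glo, 10 min RT) after 24 h, 37 °C compound exposure (final up to 57.5 uM) of HEK293 reporter cells cultured 24 h beforehand; PTC124 at 50 uM final as control inhibitor; activity scaled vehicle 0%, zero RLU -100%.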

| Structure (SMILES) | activity change, negative = inhibition |
| --- | --- |
| Cc1ccc(CCNC(=O)C2CCCN(S(=O)(=O)c3ccc4c(c3)oc(=O)n4C)C2)cc1 (stereo unspecified) | inactive: -8.28% |
| CCc1ccc(-n2nc(C)c3c(C)cc(=O)n(CC(=O)N(CC)Cc4ccccc4)c32)cc1 | inactive: -2.89% |
| CCc1ccc(C(=O)c2cn(Cc3ccccc3)c3cc(OC)c(OC)cc3c2=O)cc1 | inactive: -25.6% |
| Oc1c(C(c2ccc(Cl)cc2Cl)N2CCCC2)sc2nc(-c3ccco3)nn12 (stereo unspecified) | inactive: 0.346% |
| COc1ccccc1NC(=O)CSc1nc(-c2cccc(Cl)c2)nc2c1Cc1c(CO)cnc(C)c1O2 | inactive: -16.3% |
| CCOc1ccc(CCNC(=O)CCSCc2cccc(Cl)c2)cc1OCC | inactive: -24.7% |
| CCc1ccccc1NC(=O)COC(=O)c1cn(CC)c2nc(C)ccc2c1=O | inactive: -14.3% |
| CCCCOC(=O)c1ccc(Nc2nc3ccc(C)cc3n3cnnc23)cc1 | inactive: -12.1% |
| CN(C)c1ccc(NC(=O)C2(c3cccs3)CCOCC2)cc1 | inactive: -1.21% |
| O=C(Nc1cc(Cl)ccc1O)c1cc2nc(-c3ccc4c(c3)OCO4)cc(C(F)(F)F)n2n1 | inactive: -5.38% |
| CCCOc1ccc(Cn2c(=O)sc3ccccc32)cc1 | inactive: -6.59% |
| Cc1ccc(-c2nc(SCC(=O)Nc3cc(C)on3)c3c(=O)n(C)c(=O)n(C)c3n2)cc1 | inactive: -5.78% |
| COc1ccccc1NC(=O)c1c(NC(=O)c2cccs2)sc2c1CCC(C(C)(C)C)C2 (stereo unspecified) | inactive: -11.4% [at 11.5 µM] |
| CCCCCNc1nc2c(-c3ccccc3)nnn2c2ccccc12 | inactive: -17.1% |
| CCc1ccc(OC(=O)c2sc3ncn(Cc4cccc(F)c4)c(=O)c3c2C)cc1 | inactive: -6.2% |
| O=P(O)(O)C(O)(Cn1ccnc1)P(=O)(O)O | inactive: -1.32% [at 25.2 µM] |
| O=C(NCc1ccc(F)cc1Cl)c1ccc(CSCc2ccccc2Cl)o1 | inactive: -4.86% |
| Cc1ccc(NC(=O)c2cc(-c3cccs3)nc3ccccc23)c(C)c1 | inactive: -11.8% |
| Cc1ccc(N2CCN(C(=O)Nc3cn(CC(C)C)c(=O)c4ccccc34)CC2)c(C)c1 | inactive: -1.94% |
| CC(C)Oc1ccc(CNC(=O)c2cnc3sc(N4CCCCCC4)nn3c2=O)cc1 | inactive: 14.4% |
| C[C@]12CCC3c4ccc(O)cc4CCC3C1CCC2=O (stereo partly specified) | inactive: -15.8% |
| CCOc1ccc(/C=C/c2nc(C#N)c(N3CCCCCC3)o2)cc1 | inactive: -8.13% |
| Cc1ccc(CNC(=O)c2ccc(CSCc3c(F)cccc3Cl)o2)cc1 | inactive: 3.72% |
| CC#CCn1c(N2CCC[C@@H](N)C2)nc2c1c(=O)n(Cc1nc(C)c3ccccc3n1)c(=O)n2C | inactive: -2.97% |

| Structure (SMILES) | activity change, negative = inhibition |
| --- | --- |
| COc1ccccc1NC(=O)Cn1c(=O)n(Cc2nc(C)no2)c(=O)c2cc3c(cc21)OCO3 | inactive: -9.91% |
| COc1ccccc1NC(=O)N1CCOc2ccccc21 | inactive: -4.42% |
| Cc1cc(C)n2nc(CNS(=O)(=O)c3ccc(F)cc3)nc2n1 | inactive: 13.1% |
| CCCN(CCC)CCNC(=O)Cn1cnc2sc(C)c(S(=O)(=O)N3CCN(c4ccccc4OC)CC3)c2c1=O | inactive: -14.5% |
| COc1cccc(CNC(=O)c2ccc(CN3CC(=O)N4CCCCC4C3=O)cc2)c1 (stereo unspecified) | inactive: -20.2% |
| COc1ccccc1/C=C(\C#N)C(=O)NCC1CCCO1 (stereo unspecified) | inactive: 1.93% |
| CCOc1ccc(-n2c(SCC(=O)N3CCCc4ccccc43)nc3c([nH]c4ccccc43)c2=O)cc1 | inactive: -6.21% |
| CN(c1ccc(Cl)cc1)S(=O)(=O)c1nnc(NC(=O)c2ccco2)s1 | inactive: -12.8% |
| CCOC(=O)c1[nH]c(C)c(C(=O)NCCc2ccccc2)c1C | inactive: 37.9% |
| CCOc1ccccc1NC(=O)CCS(=O)(=O)c1ccc(OC)cc1 | inactive: 1.08% |
| O=C(CCn1c(=O)c2ccccc2n(Cc2ccc(Cl)cc2)c1=O)NCc1ccc2c(c1)OCO2 | inactive: 0.269% |
| COc1ccc(CCNC(=O)C(=O)Nc2ccc(C)c(C)c2)cc1OC | inactive: 16% |
| Cc1ccc2nc(NCCc3ccc(Cl)cc3)c3nncn3c2c1 | inactive: -13.1% |
| COc1ccc(C)cc1NC(=O)Cc1ccc(NC(=O)N2CCCCc3ccccc32)cc1 | inactive: -25% |
| Cc1ccc(C)c(Oc2c(C(F)(F)F)oc3c(CN4CCN(C)CC4)c(O)ccc3c2=O)c1 | inactive: -13.2% |
| CC(C)c1ccc(Nc2c(-c3ccsc3)nc3ccc(Cl)cn23)cc1 | inactive: -0.732% |
| CCn1cc(C(=O)NCc2ccccc2Cl)c(=O)c2cc(S(=O)(=O)N3CCOCC3)ccc21 | inactive: -3.08% |
| C[C@@H]1C[C@H]2[C@@H]3CCC4=CC(=O)C=C[C@]4(C)[C@@]3(F)[C@@H](O)C[C@]2(C)[C@H]1C(=O)CO | inactive: 2.61% |
| CCC(=O)C1=C(c2ccccc2)N(C(=O)CC)n2c(nnc2C2CCCCC2)S1 | inactive: -6.95% |
| O=C(Nc1ccccc1[N+](=O)[O-])c1csnn1 | inactive: 4.06% |
| O=C(Nc1ccc2nc(SCC(=O)N3CCc4ccccc43)sc2c1)c1ccc(Cl)cc1 | inactive: 0.689% |
| Cc1ccc(NC(=O)CN2C(=O)C(c3ccc(F)cc3)=NC2(C)C)c(C)c1 | inactive: -17.2% |
| Cc1cccc(C(=O)Nc2sc3c(c2C(=O)Nc2ccccc2)CCC3)c1 | inactive: -8.4% |
| CCN(CC)C(=O)Nc1ccc(OCC(O)CNC(C)(C)C)c(C(C)=O)c1 (stereo unspecified) | inactive: 6.92% |

| Structure (SMILES) | activity change, negative = inhibition |
| --- | --- |
| COc1ccc(CCNC(=O)c2cc(-c3ccc(C)c(C)c3)nc3ccccc23)cc1OC | inactive: -15.4% |
| CCCn1c2ccc(C)cc2c2nnc(SCCN3CCCCC3)nc21 | inactive: 0% |
| Cc1ccc(S(=O)(=O)Nc2nc3n(n2)C(c2ccc(Cl)cc2)C=C(c2ccccc2)N3)cc1 (stereo unspecified) | inactive: -15.2% |
| O=C(CN1C(=O)CC(c2ccco2)Sc2ccccc21)Nc1ccc(OC(F)(F)F)cc1 (stereo unspecified) | inactive: -17.8% |
| Cc1ccc(NC(=O)[C@H](Cc2ccccc2)N2Cc3ccccc3C2=O)cc1F | inactive: -7.14% |
| CCOc1ccc(C2CC(=O)c3c([nH]c(C(=O)OC4CCCCCC4)c3C)C2)cc1 (stereo unspecified) | inactive: -4.45% |
| Cc1nn(C)c2c1c(C(F)(F)F)cc(=O)n2C(C)C(=O)NCc1ccccc1 (stereo unspecified) | inactive: -23.4% |
| CCOCCc1nn2c(=O)cc(COC(=O)c3ccc4c(c3)OCO4)nc2s1 | inactive: -5.68% |
| Cn1c(C(=O)Nc2cccc(Cl)c2)cc2c(=O)n(C)c3ccccc3c21 | inactive: 0.254% |
| COc1ccc(-c2nc(CS(=O)CC(=O)NCc3ccccc3Cl)c(C)o2)cc1OC (stereo unspecified) | inactive: -2.1% |
| O=S(=O)(c1ccc(Br)cc1)N1CCn2cccc2C1c1ccc(Br)cc1 (stereo unspecified) | inactive: 0% |
| Cc1ccc(CNc2nc3nc(C)c(Cl)c(C)n3n2)cc1 | inactive: 75.2% |
| Cc1ccc(-c2cn3c(n2)sc2cc(C(=O)NC4CCCCCC4)ccc23)c(C)c1 | inactive: -2.43% |
| Cc1cccc(NC(c2nnc(-c3ccccc3)o2)c2ccc(F)cc2Cl)c1C (stereo unspecified) | inactive: -19.3% |
| Cc1oc2c(c(C)cc3oc(=O)c(CC(=O)NCCc4ccc(Cl)cc4)c(C)c32)c1C | inactive: 26.7% |
| CC(C)c1nn2c(=O)cc(COC(=O)COc3ccccc3F)nc2s1 | inactive: -0.267% |
| CCc1ccccc1NC(=O)CSc1nc2ccccc2nc1Cc1cccc(OC)c1 | inactive: -5.38% |
| O=C(NCc1ccccc1)c1ccc2c(c1)sc1nc(-c3ccc(F)cc3)cn12 | inactive: 6.78% |
| COc1cccc(-c2cn3c(n2)sc2cc(C(=O)NCCc4ccccc4)ccc23)c1 | inactive: 8.21% |
| Cc1cc(-c2ccc(C)c(S(=O)(=O)N(C(C)C)C3CCCCC3)c2)on1 | inactive: -10.3% |
| CCn1c(=O)c2c(nc(C=Cc3ccc(OC)c(OC)c3)n2C)n(CC)c1=O | inactive: -2.9% |
| CC1(C)O[C@H]2[C@@H](O1)[C@@H](C(=O)Nc1cc(F)ccc1F)O[C@@H]1OC(C)(C)O[C@@H]12 | inactive: 4.62% |
| COc1cc2c(cc1OC)C(C(C(=O)N(CCc1ccc(OC)c(OC)c1OC)CCc1ccc(OC)c(OC)c1OC)c1ccccc1)=NCC2 (stereo unspecified) | inactive: -15.2% |
| Cc1cccc(-c2cc(C(=O)O)c3c(-c4ccc(F)cc4)[nH]nc3n2)c1 | inactive: -8.65% |

| Structure (SMILES) | activity change, negative = inhibition |
| --- | --- |
| Cc1ccc2nc(N(Cc3cccnc3)C(=O)CCc3ccccc3)sc2c1 | inactive: -11.3% |
| CNC(=O)c1ccc(N2C(=S)N(c3ccc(C#N)c(C(F)(F)F)c3)C(=O)C2(C)C)cc1F | inactive: -6.09% |
| COc1ccc(-c2nc3n(n2)C(c2cccc(C)c2)C(C(N)=O)=C(C)N3)cc1OC (stereo unspecified) | inactive: -0.254% |
| O=C(CCBr)N1CCN(C(=O)CCBr)CC1 | inactive: 7.33% |
| CCOC(=O)C1=C(CN2CCCCC2)NC(=O)NC1c1ccc(OC)cc1 (stereo unspecified) | inactive: -18.2% |
| Cc1ccc(-c2cn3c(n2)sc2cc(C(=O)NC4CCCCC4)ccc23)cc1 | inactive: -17.4% |
| COc1cc(OC)c(NC(=O)Nc2cc(C)on2)cc1Cl | inactive: 9.9% |
| CCOc1ccccc1NC(=O)c1cn(C2CCCCC2)c(=O)c2c1c1ccccc1n2C | inactive: -14.5% |
| COc1ccc(CCNC(=O)CCn2c(=O)c3cccn3c3ccc(F)cc32)cc1OC | inactive: 0.47% |
| NS(=O)(=O)c1ccc(CCNC(=O)CCn2c(=O)c3cccn3c3cccnc32)cc1 | inactive: -3.52% |
| Cc1cc(F)ccc1NC(=O)CN1C(=O)CCc2cc(S(=O)(=O)N3CCOCC3)ccc21 | inactive: -12.4% |
| CCOc1cc2ncc(C#N)c(Nc3ccc(OCc4ccccn4)c(Cl)c3)c2cc1NC(=O)C=CCN(C)C | inactive: -27% |
| COc1cc2nc(N3CCN(C(=O)C4COc5ccccc5O4)CC3)nc(N)c2cc1OC (stereo unspecified) | inactive |
| Cc1cc(Br)ccc1NC(=O)C(NS(=O)(=O)c1cccs1)c1ccccc1 (stereo unspecified) | inactive: -26.4% |
| COc1ccc(Cl)cc1NC(=O)c1cc2nc(-c3ccc(C)cc3)cc(C(F)(F)F)n2n1 | inactive: -16.5% [at 11.5 µM] |
| CCOC(=O)C(C)Nc1ncnc2onc(C)c12 (stereo unspecified) | inactive: -7.45% |
| COc1cc(NC(=O)CCCN2C(=O)CCn3nc(-c4cn(C)c5ccccc45)cc32)cc(OC)c1 | inactive: -22.2% |
| CSc1nc(C)cc(Nc2cccc(C(=O)O)c2)n1 | inactive: 47.6% |
| O=c1c(O)c(-c2ccc(O)cc2)oc2cc(O)cc(O)c12 | inactive: 49.2% |
| Fc1ccc(Nc2nc(-c3ccc(F)cc3)c3c(n2)-c2ccccc2OC3)cc1 | inactive: -8.46% |
| Cc1sc2c(c1C)c(=O)n(-c1ccc(Cl)cc1)c(=O)n2CC(=O)c1ccccc1 | inactive: -4.89% |
| COc1cccc(C(=O)Nc2ccc3nc(SCC(=O)N4CCc5ccccc54)sc3c2)c1 | inactive: -9.96% |
| Cc1c(NC(=O)c2ccc(-c3ccc(F)cc3)o2)cccc1-c1nc2ncccc2o1 | inactive: 2.92% |
| COc1cccc(CNC(=O)c2ccc3c(c2)sc2nc(-c4ccccc4)cn23)c1OC | inactive: -3.24% |
